# In all, about 110,000 compounds were measured (“z-score”: median about -0.1, highest 2% from about 2 on). This is one part of the list. Activity calls are given as the source filed them.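 The calls were made as follows: active = z-score in the third read window above 3 or below -3; inactive = the rest.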
# Target: Metabotropic glutamate receptor 8 (Rattus norvegicus) (UniProt P70579)
# Assay: mGluR8 Gi/Go-coupled signaling modulation – cell-based, rat, thallium flux, HTS, primary screen (AID 488969)
# Settings: HEK293 rat mGluR8, GIRK (G protein-gated inwardly rectifying potassium channel) thallium flux, FluoZin2; at 10 µM; stronger effect = higher value; submaximal glutamate (EC20) added with thallium
# Sequence of UniProt P70579 (P70579 whole entry, looked up): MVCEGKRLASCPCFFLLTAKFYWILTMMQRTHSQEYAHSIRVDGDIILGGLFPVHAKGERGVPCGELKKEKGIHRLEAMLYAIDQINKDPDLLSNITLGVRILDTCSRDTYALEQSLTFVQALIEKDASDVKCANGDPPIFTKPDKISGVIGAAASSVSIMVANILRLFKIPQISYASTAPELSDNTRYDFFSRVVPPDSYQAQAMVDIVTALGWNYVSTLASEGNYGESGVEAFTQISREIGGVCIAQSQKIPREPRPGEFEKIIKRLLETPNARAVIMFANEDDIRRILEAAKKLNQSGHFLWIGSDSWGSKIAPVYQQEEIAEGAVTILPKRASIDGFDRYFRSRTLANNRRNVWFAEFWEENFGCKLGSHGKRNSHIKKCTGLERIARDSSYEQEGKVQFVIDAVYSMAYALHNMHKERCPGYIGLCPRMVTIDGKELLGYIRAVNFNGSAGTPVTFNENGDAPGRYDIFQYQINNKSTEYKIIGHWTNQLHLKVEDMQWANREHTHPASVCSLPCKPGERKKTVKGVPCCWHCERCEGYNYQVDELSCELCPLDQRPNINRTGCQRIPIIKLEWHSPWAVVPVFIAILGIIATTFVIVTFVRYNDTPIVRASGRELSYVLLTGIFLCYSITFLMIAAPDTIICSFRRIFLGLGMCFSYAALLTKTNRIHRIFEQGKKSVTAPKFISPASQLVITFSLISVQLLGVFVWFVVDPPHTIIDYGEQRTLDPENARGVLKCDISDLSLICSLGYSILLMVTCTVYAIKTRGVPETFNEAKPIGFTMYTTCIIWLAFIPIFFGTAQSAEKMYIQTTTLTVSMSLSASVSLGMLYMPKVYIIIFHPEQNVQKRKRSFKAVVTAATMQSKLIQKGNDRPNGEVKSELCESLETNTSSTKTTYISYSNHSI
row,SMILES,z-score
1,C=CCn1c(=O)c2ccccc2n2c(SCc3cc(=O)n4ccsc4n3)nnc12,1
2,CN1CCN(c2ccccc2NC(=O)COc2ccc(Br)cc2)CC1,-0.396
3,CCC(=O)N1CCc2cc(Br)cc(S(=O)(=O)CCC(=O)NCCOC)c21,-0.0862
4,C[C@@H](NC(=O)c1coc(=O)c(Br)c1)c1ccccc1,-0.237
5,COc1ccc(CCNC(=O)c2nc3ncccn3n2)cc1OC,0.169
6,COc1ccc(N2CC(C(=O)Nc3ccc(S(=O)(=O)Nc4nc(C)cc(C)n4)cc3)CC2=O)cc1 (centres undefined),-0.193
7,CCNC(=O)Cn1cnc2c1c(=O)n(C)c(=O)n2C,0.00387
8,CC[C@@H](C)[C@H](NS(=O)(=O)c1ccc(C)cc1)C(=O)N1CCC(C(=O)NCC(=O)O)CC1,-0.145
9,CC(=O)c1cccc(NC(=O)C2CCCN2S(=O)(=O)c2cccc3nsnc23)c1 (centres undefined),-0.11
10,O=C(CN1CCN(Cc2ccc3c(c2)OCO3)CC1)Nc1ccc2c(c1)OCO2,-1.43
11,COc1ccc(S(=O)(=O)Cc2ccc(C(=O)NCc3ccccn3)o2)cc1,-0.168
12,NS(=O)(=O)c1ccc(NC(=O)N2c3ccccc3Sc3ccccc32)cc1,0.371
13,CCc1nnc(NS(=O)(=O)c2ccc(NC(=S)NC(=O)c3ccccc3)cc2)s1,active: 5.21
14,CC(C)(C)NC(=O)COC(=O)CNC(=O)c1cc(Cl)cc([N+](=O)[O-])c1,1.35
15,CCCN1C2=C(C(=O)CCC2)C(c2ccc(O)c(Br)c2)C2=C1CCCC2=O,-1.03
16,Cc1noc(C)c1CN(C(=S)NC(C)C)c1ccccc1,-0.102
17,COc1ccc(CNC(=O)C2CCN(S(=O)(=O)N3CCOCC3)CC2)cc1,0.0542
18,Cc1cc(=O)oc2cc(OCC(=O)OCC(=O)N3CCc4ccccc43)ccc12,-0.0327
19,CCOc1ccc(NC(=O)c2ccccc2NS(=O)(=O)c2ccc(F)cc2)c([N+](=O)[O-])c1,-0.294
20,CCS(=O)(=O)N1CCN(C(=O)c2cc(OC)cc(OC)c2)CC1,0.462
21,CCc1ccc2c(c1)C1(NN=C(c3ccc(C)cc3)S1)C(=O)N2 (centres undefined),active: 3.15
22,O=C(Nc1ccc2c(c1)OCCO2)c1ccc(NC(=O)C2CCCO2)cc1 (centres undefined),0.0738
23,COc1ccc(Nc2nc(N3CCCC3)nc(N3CCCC3)n2)c(OC)c1,0.55

row,SMILES,z-score
1,CC(=O)Cc1nsc(NC(=O)C2Cc3ccccc3C(=O)O2)n1 (centres undefined),-0.244
2,O=C(O)[C@H]1CCC(=O)N1Cc1ccco1,-0.288
3,CC(=O)NNS(=O)(=O)c1ccccc1[N+](=O)[O-],-0.454
4,O=C(COc1cccc(NC(=O)c2ccco2)c1)c1ccccc1,0.382
5,O=C(NNc1nc2ccccc2s1)c1ccc(F)cc1,0.186
6,O=C(Nc1ccccc1)N1CCN(c2ccc(F)cc2)CC1,0.147
7,COc1ccc(C2C(C(N)=O)=C(C)Nc3nc(-c4ccccc4)nn32)cc1OC (centres undefined),0.875
8,COc1cc(NC(=O)CSc2nc3cc(C)ccc3cc2C)c(C(=O)O)cc1OC,-0.828
9,O=C1CCCc2c1[nH]c1ccc(CN3CCCCC3)cc21,0.129
10,CCSc1nnc(NC(=O)c2ccc(Br)s2)s1,-0.152
11,O=C1c2cccc(OCc3ccc(F)cc3)c2CCN1Cc1ccccc1,0.677
12,CCOc1ccc(C(=O)NCCCn2ccnc2)cc1,0.924
13,COc1ccc(OC)c(C(C)NC(=O)c2ccc(Br)cc2)c1 (centres undefined),-0.0311
14,Cc1nn(C)c(C)c1NC(=O)CCSc1nc(-c2ccco2)cc(C(F)(F)F)n1,-1.15
15,O=C(CSc1nc2c(c(=O)n1-c1ccc(F)cc1)SCC2)Nc1ccc2c(c1)OCO2,-0.281
16,Nc1nc2ccc(O)cc2s1,-0.141
17,CCOc1cc(/C=C2/C(=O)ON=C2C)ccc1OCc1ccc(F)cc1,-0.962
18,CCC(=O)N1CCN(c2ccc(NC(=O)c3ccco3)cc2)CC1,0.753
19,COc1ccc(N(CC(=O)NC2CCCC2)C(=O)Cn2nnc(-c3ccc(C)cc3)n2)cc1,active: -3.78
20,COc1ccc2c(C)cc(N3CCN(c4ccc(F)cc4)CC3)nc2c1,-0.288
21,CCCCCCC1C(C#N)=C(N)OC2=C1C(=O)CCC2 (centres undefined),-0.102
22,C=CCOc1ccccc1/C=N/NC(=O)c1ccc(Cl)cc1Cl,0.0573
23,O=C(NCc1ccco1)c1cccc(N2CCCC2=O)c1,-0.152

row,SMILES,z-score
1,Cc1ccc(-c2nnc(SCc3ccccc3F)o2)cc1,0.708
2,COc1ccc(-c2nn(-c3ccccc3)cc2/C=N/NC(=O)c2cccc(S(=O)(=O)Nc3ccccc3Cl)c2)cc1,0.244
3,COc1cc(C(=O)Oc2ccccc2/C=N/NC(=O)c2ccc(Cl)cc2)cc(OC)c1OC,-0.169
4,COc1ccccc1C(=O)NNC(=O)CCCN1C(=O)/C(=C/c2cccs2)SC1=S,0.254
5,O=C(CCC(=O)c1ccc[nH]1)c1ccc(Cl)cc1,1.33
6,CCOc1cc(C)nc(N2CCCC(C(=O)NCc3ccccc3F)C2)n1 (centres undefined),-0.469
7,COc1ccc(C2C(C(=O)N3CCC(C)CC3)c3ccccc3C(=O)N2C)cc1 (centres undefined),0.0244
8,CCOCc1cc(C)[nH]c(=O)c1C#N,-0.039
9,COc1ccc(Nc2nnc(-c3ccc(N4CCOCC4)c([N+](=O)[O-])c3)c3ccccc23)cc1,-0.163
10,Cc1cc(C)cc(Oc2ccc(C(F)(F)F)cc2C#N)c1,0.3
11,CC(=O)Oc1ccc(-c2csc(Nc3cccnc3)n2)cc1,-0.636
12,CCc1cc(C(=O)NNC(=S)Nc2cccc(C)c2)cs1,active: 7.17
13,O=S(=O)(NCc1ccc2c(c1)OCO2)c1cccc(S(=O)(=O)N2CCOCC2)c1,0.771
14,O=C1CC(c2ccco2)CC(O)=C1C=Nc1cc(Cl)ccc1Cl (centres undefined),-0.00986
15,COc1ccc(NC(=O)c2ccccc2NC(=O)CSc2ccc(C)cc2)cc1,-0.388
16,Nc1c(C(=O)Nc2ccccc2)sc2nc3c(c(-c4ccco4)c12)CCCC3,-0.627
17,Cc1cccc(OCc2nc(-c3ccccn3)n[nH]2)c1,-0.872
18,Cc1ccc2nsnc2c1S(=O)(=O)NCc1ccc2c(c1)OCO2,0.73
19,O=C1CN(C(=O)CCN2CCOCC2)C(c2ccccc2)c2cc(Br)ccc2N1 (centres undefined),-0.163
20,Oc1ccc2ccccc2c1C1Nc2cccc3cccc(c23)N1,0.097
21,COc1ccc(NC(=O)C2CCCN(S(=O)(=O)c3cccc4cccnc34)C2)cc1OC (centres undefined),-0.263
22,CSCCC(N=CC1=C(O)CC(C)(C)CC1=O)C(=O)O (centres undefined),-0.341
23,CCn1cc(CNC(=O)CSc2nc(-c3ccc(OC)c(OC)c3)cc(C(F)(F)F)n2)c(C)n1,-0.182

# Reference: PubChem BioAssay AID488969 (Vanderbilt High Throughput Screening Facility, 2010)
